Results reported in the supplement of paper PMC3656093.
± gives the standard deviation of the averaged measurements. Over roughly 1,900 compounds, “CD40L-induced NF-kB luciferase activity, plate-corrected, relative to DMSO (0) and IKK inhibitor VII (-100) controls” has its median near 0.032; the lowest 2% begin near -26. The list shows a part of the results.

System: BL2-NFkB-Luc
Experiment: CD40L-induced NF-kB luciferase activity, plate-corrected, relative to DMSO (0) and IKK inhibitor VII (-100) controls (% normalized activity); higher = more NF-kB reporter activity (less inhibition)
Settings: 9.4 µM; stimulus: tCD40L 64 ng/ml; 4.5 h
Protocol: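 BL2 B cells with a stable NF-kB response-element luciferase reporter (BL2-NFkB-Luc), 384-well. Cells were pre-incubated with compound at 9.4 uM for 1 h at 37 C, then stimulated with 64 ng/ml trimerized CD40L for 4.5 h; luciferase was read with Steady-Glo. Signal was normalised per plate in Genedata (median DMSO neutral control = 0, median IKK inhibitor VII at 50 uM = -100) with Assay Median plate-pattern correction; duplicate plates.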

Structure (SMILES)	CD40L-induced NF-kB luciferase activity
CC(C)(C)C(=O)Nc1cccc(OC(F)(F)C(F)Cl)c1 (centres undefined)	1.52 ± 2.7
O=C(O)CCSc1nc2ccccc2s1	-42.3 ± 0.52
C[C@]12CCC(=O)C=C1CC[C@@H]1[C@@H]2C(=O)C[C@@]2(C)[C@H]1CC[C@]2(O)C(=O)CO	-6.47 ± 2
CC1CCN(C(=O)Oc2ccccc2)CC1	3.44 ± 9.1
CCOC(=O)N1CCC(=C2c3ccc(Cl)cc3CCc3cccnc32)CC1	-13.7 ± 11
N/C(=N\OS(=O)(=O)c1ccc2ccccc2c1)c1cccnc1	-3.05 ± 1.9
NC(=O)c1ccccc1O	-0.231 ± 0.98
O=C(CN1C(=O)/C(=C/c2cccc(Br)c2)SC1=S)Nc1cccnc1	-0.735 ± 7.1
CC(C)=CC/C=C1\CCC(C(=O)O)C(C(=O)O)C1 (centres undefined)	-1.05 ± 3.1
CSCC[C@H](NC(=O)Nc1ccc(C)cc1C)C(=O)O	-0.608 ± 1.7
O=C1c2ccccc2C(=O)C1c1ccccc1	6.89 ± 4.6
Clc1ccc2c(c1)C(N1CCNCC1)=Nc1ccccc1O2	-5.25 ± 0.1
CCc1cc(=O)oc2cc(OCC=C(C)C)ccc12	4.36 ± 2.6
O=C(Nc1ccc(C(=O)NC2CCCCC2)cc1)c1cccnc1	0.625 ± 0.58
c1ccc(CC2=NCCN2)cc1	-1.48 ± 3.2
CC(C)(Oc1ccc(CCNC(=O)c2ccc(Cl)cc2)cc1)C(=O)O	-4.16 ± 7.8
OCCN1CCN(CCCN2c3ccccc3Sc3ccc(C(F)(F)F)cc32)CC1	1.85 ± 5.4
CCOC(=O)C(=O)N1CCN(c2ccccc2OC)CC1	-1.99 ± 1.9
O=C(NC1CCCCC1)N1CCc2[nH]c3ccccc3c2C1	1.1 ± 4.6
CC(=O)OCC(=O)[C@H]1CC[C@H]2[C@@H]3CC=C4C[C@@H](O)CC[C@]4(C)[C@H]3CC[C@]12C	1.14 ± 1.8
O=C(O)C1Cc2ccccc2CN1S(=O)(=O)c1ccccc1 (centres undefined)	8.62 ± 3.4
COc1ccc(C=NCC2COc3ccccc3O2)cc1OC (centres undefined)	6.18 ± 0.8
O=C(NCCO)c1ccc(Cl)c(Cl)c1	-2.45 ± 0.73
Cn1c(=O)[nH]c(=O)c2c1ncn2CCN1CCOCC1	1.76 ± 0.85
COc1ccc(N2CCN(C(=S)NCc3ccccc3)CC2)cc1	1.3 ± 1.4
N#Cc1cc2c([nH]c1=O)CCCC2	0.467 ± 4.2

Structure (SMILES)	CD40L-induced NF-kB luciferase activity
O=C(CN1CCN(Cc2ccccc2)CC1)N1CCCc2c1c(=O)oc1ccc(O)cc21	2.23 ± 2.3
COc1ccccc1C1(CC(=O)N2CCCCC2)CCOC(C(C)C)C1 (centres undefined)	-7.48 ± 6.7
O=Cc1ccc(OC(=O)c2cccnc2)cc1	0.82 ± 6.7
COc1ccc(C=NNC(=O)CCc2c(C)n[nH]c2C)c(OC)c1OC	3.32 ± 11
O=C1OC(c2ccc(O)cc2)(c2ccc(O)cc2)c2ccccc21	0.943 ± 1.8
CCOc1cc(C=O)ccc1OCCSc1ccc(C)cc1	8.64 ± 2
COCC1CCCN(Cc2cn[nH]c2-c2cc3ccccc3o2)C1 (centres undefined)	-1.43 ± 7.7
COc1ccc(CCCC(=O)O)c(C)c1	1.85 ± 1.2
CCOc1ccc(C(=O)C(C)=O)c(OCC)c1	2.66 ± 2.9
COc1ccc(CN(CCC(c2ccc(F)cc2)C2CCOC(C)(C)C2)C(=O)c2ccco2)cc1 (centres undefined)	-4.2 ± 3.9
COc1ccc(CNC(=O)C2CCN(C(=O)[C@@H](CC(C)C)NC(=O)OC(C)(C)C)CC2)cc1	0.475 ± 1.7
CC(C)(CO)CNC(=O)CC1C(=O)NCCN1CC(c1ccccc1)c1ccccc1 (centres undefined)	4.84 ± 3.6
CCOC(=O)c1cc2cc3ccccc3cc2[nH]1	81.2 ± 21
O=[N+]([O-])c1cc(C=Nn2cnnc2)ccc1N1CCCC1	3.63 ± 0.46
Clc1ccc(CCNc2ncnc3nc[nH]c23)cc1	-3.1 ± 2.3
CC(C)C(=O)Nc1cccnc1	0.845 ± 5
C/C=C/Cn1c(SC)nc2c1c(=O)[nH]c(=O)n2C	-0.907 ± 1.9
CCCCN1C[C@H](O)[C@@H](O)[C@H](O)[C@H]1CO	3.27 ± 0.15
c1ccc2c(c1)CCCC2C1=NCCN1 (centres undefined)	-7.25 ± 2
O=C(NCCc1ccccc1)C1CCN(C2CCN(Cc3ccco3)CC2)CC1	-15.7 ± 8.9
COC(=O)c1ccccc1NC(=O)NCc1ccccc1	1.83 ± 0.93
Nc1ccc(S(=O)(=O)NC(=O)c2ccccc2)cc1	-7.05 ± 4.3
CCC(C)NCCOc1ccc(C(C)(C)c2ccccc2)cc1 (centres undefined)	3 ± 1.7
C=C(CC)C(=O)c1ccc(OCC(=O)O)c(Cl)c1Cl	10.8 ± 5.9
C[C@]12CC[C@@H]3c4ccc(O)cc4[C@@H](O)C[C@H]3[C@@H]1CC[C@@H]2O	-4.29 ± 0.53
CN1C(C(=O)Nc2ccccn2)C(=O)c2sccc2S1(=O)=O (centres undefined)	1.31 ± 6.3

Structure (SMILES)	CD40L-induced NF-kB luciferase activity
NC(=NOS(=O)(=O)c1ccc([N+](=O)[O-])cc1)c1ccncc1	-4.24 ± 1.5
Cn1cc(CN(CCO)Cc2cccs2)c(-c2cccc(Cl)c2)n1	-2.19 ± 5.6
CN1CCC(=C2c3ccccc3C=Cc3ccccc32)CC1	3.08 ± 0.91
CN1CCN(CC/C=C2/c3ccccc3Sc3ccc(S(=O)(=O)N(C)C)cc32)CC1	12.4 ± 6.6
COc1ccc2oc(C)c(C(N)=O)c2c1	5.21 ± 2.3
CC1(C)Cc2ccccc2C(C(Cc2ccccc2)C(N)=O)=N1 (centres undefined)	2.48 ± 4.3
CC(=O)OC(CC(=O)O)C[N+](C)(C)C (centres undefined)	2.22 ± 3.5
CC(=O)c1cc2c(cc1NC(=O)c1ccco1)OCCO2	31.7 ± 9.8
CC(C)CCOCC(=O)Nc1cccc(C(=O)O)c1	23.4 ± 1
Cc1ccc2[nH]c3c(c2c1)CN(C)CC3	1.91 ± 2.5
CCCc1cc(C(N)=S)ccn1	0.433 ± 0.41
CC(=O)OCC(=O)[C@@]1(O)CC[C@H]2[C@@H]3CCC4=CC(=O)CC[C@]4(C)[C@H]3[C@@H](O)C[C@@]21C	-31.1 ± 6.7
COc1ccc(NC(=O)C2CCCN2C(=O)OC(C)(C)C)cc1 (centres undefined)	-1.36 ± 0.78
CC(=O)Nc1ccc(OS(=O)(=O)c2c(C)cc(C)cc2C)cc1	1.17 ± 2
NS(=O)(=O)c1cc(C2(O)NC(=O)c3ccccc32)ccc1Cl (centres undefined)	0.0805 ± 1.7
O=C(NC(=S)Nc1ccc2c(c1)OCCO2)c1ccccc1F	0.234 ± 0.6
O=C1C2C3C=CC(C4CC34)C2C(=O)N1N=Cc1ccc(-c2ccc([N+](=O)[O-])cc2)o1 (centres undefined)	-2.78 ± 3.9
O=C(O)CCCCCCCC(=O)O	4.18 ± 3.5
O=C(NCc1ccc2c(c1)OCO2)c1ccc2c(c1)OCCO2	19.8 ± 2.2
CCCCN(CCCC)CCCOC(=O)c1ccc(N)cc1	7.04 ± 4.1
COc1ccc(C(=O)NCC2OCCc3ccccc32)cc1 (centres undefined)	14.2 ± 3.1
CC[N+](C)(C)c1cccc(O)c1	1.9 ± 5.2
Cc1ccc(-c2nnc(-c3ccc4c(c3)OCO4)o2)cc1	61 ± 18
CN(C)c1ccc(C(CN)c2c[nH]c3ccccc23)cc1 (centres undefined)	31.86 ± 0.092
O=C(NC(=S)Nc1ccc(N2CCN(C(=O)c3ccccc3)CC2)cc1)c1cccs1	0.881 ± 1.6
COc1ccc2[nH]c(=O)c3c(c2c1)OC(C)(C)C=C3	-32.8 ± 0.38

Structure (SMILES)	CD40L-induced NF-kB luciferase activity
COc1cc(/C=C/C(=O)O)cc(S(=O)(=O)NCCCO)c1OC	0.101 ± 4
O=C(Cc1ccc(Br)cc1)c1ccc(O)cc1O	32.9 ± 18
C/C=C/c1ccc(OCCCCN2CC(C)CC(C)C2)c(OC)c1 (centres undefined)	1.73 ± 0.88
CC[N+](C)(CC)CCOC(=O)C(O)(c1ccccc1)C1CCCCC1 (centres undefined)	-15.3 ± 1.7
CCn1cc(CN2N=C(C)CC2c2ccccc2)c(C)n1 (centres undefined)	2.59 ± 4
CCOc1ccccc1Oc1coc2cc(OCC(=O)O)ccc2c1=O	-5.79 ± 5.2
O=C1C2CC=C(Cl)CC2C(=O)N1CCc1c[nH]c2ccccc12 (centres undefined)	4.17 ± 2.5
Nc1ccc(-c2nc3ncccc3o2)c(Cl)c1	78.7 ± 4
COC(=O)C1=C(C)NC(C)=C([N+](=O)[O-])C1c1ccccc1C(F)(F)F (centres undefined)	-13.1 ± 0.81
CCNC1=C(Cl)C(=O)c2ccccc2C1=O	3.96 ± 1.3
COc1c(O)ccc2c1CN1CCc3cc4c(cc3C1C2)OCO4 (centres undefined)	9.86 ± 12
Cc1ccc2c(c1)c1c(n2C)C(=O)CCC1	1.84 ± 0.52
CN(C)CCCN1c2ccccc2Sc2ccc(C(F)(F)F)cc21	2.86 ± 7.7
CCN(CC)CCOC(=O)C1(C2CCCCC2)CCCCC1	0.032 ± 4.6
N#CCC(N)=C(C#N)C#N	0.428 ± 1.6
Cc1nc2ccccc2c(=O)n1N	-2.06 ± 4.5
COc1ccc(OC)c(-c2oc3ccccc3c(=O)c2O)c1	6.82 ± 0.74
Cc1cccc(N2C(=O)C3C(c4ccccc4)OC4(C(=O)c5ccccc5C4=O)C3C2=O)c1 (centres undefined)	-0.286 ± 0.72
CN1CCN(C2=Nc3ccccc3Oc3ccc(Cl)cc32)CC1	-0.724 ± 2.7
CCCCCCCCCC(=O)OCC(O)CO (centres undefined)	-6.78 ± 1.2
COc1ccccc1N1C(=O)C2CC(C)=C(C)CC2C1=O (centres undefined)	-4.81 ± 2.4
O=C1C(O)CC2c3ccccc3CC3(CCCC3)N12 (centres undefined)	2.45 ± 2.2
O=C(/C=C/c1ccc(F)cc1)N1CC[C@@]2(O)CCCC[C@H]2C1	-1.13 ± 0.88
C[C@@H]1C[C@H]2[C@@H]3C[C@H](F)C4=CC(=O)C=C[C@]4(C)[C@@]3(F)[C@@H](O)C[C@]2(C)[C@@]1(O)C(=O)CO	-27.2 ± 0.89
CCOC(=O)C1=C2c3ccc4ccccc4c3CC(C)(C)N2C(=O)C1=O	2.5 ± 3.9
O=C(O)Cc1ccc(-c2ccccc2)cc1	1.04 ± 0.49
